Test results taken from the supplement of paper PMC12217912.
The list shows a part of the results. The full chains were built here from the parent and the listed change. Values near 0.05 are background.

B1: TEV protease; numbered along this chain (parent)
chain: MGESLFKGPRDYNPISSSICHLTNESDGHTTSLYGIGFGPFIITNKHLFRRNNGTLVVQSLHGVFKVKDTTTLQQHLVDGRDMIIIRMPKDFPPFPQKLKFREPQREERICLVTTNFQTKSMSSMVSDTSCTFPSGDGIFWKHWIQTKDGQCGSPLVSTRDGFIVGIHSASNFTNTNNYFTSVPKNFMELLTNQEAQQWVSGWRLNADSVLWGGHKVFMVKPEEPFQPVKEATQL

Variants of: B1
Assay: raw area under fraction-flipped curve 0-4 h after induction (AUC4h, not background-subtracted), DNA-recorder readout of cleavage of the substrate (dimensionless); higher = more cleavage of the substrate by the protease variant
Settings: temperature: 34 °C; time window: 0-4 h after rhamnose induction
Method: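 In vivo DNA recorder in E. coli TOP10(DE3) ΔrhaA at 34 °C. Each TEVp single-site mutant (parent TEVp 0) is paired with a single-site variant of the 7-mer TEVs (canonical ENLYFQ|S). The substrate sits between flexible linkers in a Bxb1-sfGFP-TEVs-SsrA fusion, so cleavage stabilises Bxb1 and speeds flipping of a recombination array, read by NGS. The value is the raw area under the fraction-flipped curve over 0-4 h after rhamnose induction (AUC4h), with ≥20 reads per time point. It is not background-subtracted; inactive controls average about 0.047.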
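Note: Bxb1 expression induced with 0.2% (w/v) L-rhamnose at OD600 near 0.5, cultures sampled hourly, flipped fraction per protease–substrate barcode pair counted by paired-end Illumina sequencing.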

Variant	area with substrate CNLYFQS	area with substrate DNLYFQS	area with substrate FNLYFQS	area with substrate GNLYFQS	area with substrate HNLYFQS	area with substrate INLYFQS	area with substrate KNLYFQS	area with substrate LNLYFQS	area with substrate NNLYFQS	area with substrate PNLYFQS	area with substrate SNLYFQS	area with substrate TNLYFQS	area with substrate VNLYFQS	area with substrate WNLYFQS	area with substrate YNLYFQS	area with substrate MNLYFQS	area with substrate RNLYFQS	area with substrate QNLYFQS
MGESLFKGPRDYNPISSSICHLTNESDGHTTSLYGIGFGPFIITNKHLFRRNNGTLVVQSLHGVFKVKDTTTLQQHLVDGRDMIIIRMPKDFPPFPQKLKFREPQREERICLVTTNFQTKSMSSMVSDTSCTFPSGDGIFWKHWIQTKDHQCGSPLVSTRDGFIVGIHSASNFTNTNNYFTSVPKNFMELLTNQEAQQWVSGWRLNADSVLWGGHKVFMVKPEEPFQPVKEATQL [G150H]	0.0609	0.0799	0.0599	0.0644	0.041	0.0573	0.0697	0.0537	0.0618	0.125	0.0616	0.0634	0.061	0.0498	0.0584	–	–	–
MGESLFKGPRDYNPISSSICHLTNESDGHTTSLYGIGFGPFIITNKHLFRRNNGTLVVQSLHGVFKVKDTTTLQQHLVDGRDMIIIRMPKDFPPFPQKLKFREPQREERICLVTTNFQTKSMSSMVSDTSCTFPSGDGIFWKHWIQTKDVQCGSPLVSTRDGFIVGIHSASNFTNTNNYFTSVPKNFMELLTNQEAQQWVSGWRLNADSVLWGGHKVFMVKPEEPFQPVKEATQL [G150V]	0.0638	0.0381	0.0564	0.0514	0.0623	–	0.0649	0.0587	0.0568	0.0622	0.0477	0.0623	–	0.0528	0.0548	0.0634	0.0525	–
MGESLFKGPRDYNPISSSICHLTNESDGHTTSLYGIGFGPFIITNKHLFRRNNGTLVVQSLHGVFKVKDTTTLQQHLVDGRDMIIIRMPKDFPPFPQKLKFREPQREERICLVTTNFQTKSMSSMVSDTSCTFPSGDGIFWKHWKQTKDGQCGSPLVSTRDGFIVGIHSASNFTNTNNYFTSVPKNFMELLTNQEAQQWVSGWRLNADSVLWGGHKVFMVKPEEPFQPVKEATQL [I145K]	0.049	0.117	–	–	0.0543	–	–	0.0615	–	0.0451	–	0.0622	0.0575	0.0354	0.0641	0.0529	–	–
MGESLFKGPRDYNPISSSICHLTNESDGHTTSLYGIGFGPFIITNKHLFRRNNGTLVVQSLHGVFKVKDTTTLQQHLVDGRDMIIIRMPKDFPPFPQKLKFREPQREERICLVTTNFQTKSMSSMVSDTSCTFPSGDGIFWKHWIQTKDGQPGSPLVSTRDGFIVGIHSASNFTNTNNYFTSVPKNFMELLTNQEAQQWVSGWRLNADSVLWGGHKVFMVKPEEPFQPVKEATQL [C152P]	0.0487	0.0541	–	0.0449	0.0499	0.0588	–	–	0.0665	0.0575	–	–	–	0.0568	0.0495	0.0536	–	–
MGESLFKGPRDYNPISSSICHLTNESDGHTTSLYGIGFGPFIITNKHLFRRNNGTLVVQSLHGVFKVKDTTTLQQHLVDGRDMIIIRMPKDFPPFPQKLKFREPQREERICLVTTNFQTKSMSSMVSDTSCTFPSGDGIFWKHWICTKDGQCGSPLVSTRDGFIVGIHSASNFTNTNNYFTSVPKNFMELLTNQEAQQWVSGWRLNADSVLWGGHKVFMVKPEEPFQPVKEATQL [Q146C]	0.106	0.0832	–	0.09	0.0577	–	–	0.0194	–	0.0774	0.0664	0.0679	–	0.0646	0.0654	0.0771	0.105	–
MGESLFKGPRDYNPISSSICHLTNESDGHTTSLYGIGFGPFIITNKHLFRRNNGTLVVQSLHGVFKVKDTTTLQQHLVDGRDMIIIRMPKDFPPFPQKLKFREPQREERICLVTTNFQTKSMSSMVSDTSCTFPSGDGIFWKHWIMTKDGQCGSPLVSTRDGFIVGIHSASNFTNTNNYFTSVPKNFMELLTNQEAQQWVSGWRLNADSVLWGGHKVFMVKPEEPFQPVKEATQL [Q146M]	0.0786	0.107	0.0471	0.106	0.0931	0.0906	0.0775	0.0755	–	0.0801	0.0683	0.0565	0.121	0.0628	–	–	–	–
MGESLFKGPRDYNPISSSICHLTNESDGHTTSLYGIGFGPFIITNKHLFRRNNGTLVVQSLHGVFKVKDTTTLQQHLVDGRDMIIIRMPKDFPPFPQKLKFREPQREERICLVTTNFQTKSMSSMVSDTSCTFPSGDGIFWKHWITTKDGQCGSPLVSTRDGFIVGIHSASNFTNTNNYFTSVPKNFMELLTNQEAQQWVSGWRLNADSVLWGGHKVFMVKPEEPFQPVKEATQL [Q146T]	0.117	0.0793	0.0496	0.0704	0.0567	0.0736	–	–	–	0.0632	0.067	0.0653	0.0474	0.0536	0.0667	0.038	–	–
MGESLFKGPRDYNPISSSICHLTNESDGHTTSLYGIGFGPFIITNKHLFRRNNGTLVVQSLHGVFKVKDTTTLQQHLVDGRDMIIIRMPKDFPPFPQKLKFREPQREERICLVTTNFQTKSMSSMVSDTSCTFPSGDGIFWKHWIKTKDGQCGSPLVSTRDGFIVGIHSASNFTNTNNYFTSVPKNFMELLTNQEAQQWVSGWRLNADSVLWGGHKVFMVKPEEPFQPVKEATQL [Q146K]	0.0677	0.069	0.0688	0.0719	0.0694	0.0686	0.0694	0.0518	–	0.0688	0.0614	0.0819	0.0646	0.0534	0.0624	0.0606	0.0658	0.0671
MGESLFKGPRDYNPISSSICHLTNESDGHTTSLYGIGFGPFIITNKHLFRRNNGTLVVQSLHGVFKVKDTTTLQQHLVDGRDMIIIRMPKDFPPFPQKLKFREPQREERICLVTTNFQTKSMSSMVSDTSCTFPSGDGIFWKHWIQTKDGMCGSPLVSTRDGFIVGIHSASNFTNTNNYFTSVPKNFMELLTNQEAQQWVSGWRLNADSVLWGGHKVFMVKPEEPFQPVKEATQL [Q151M]	0.0372	0.0878	0.0547	0.0789	0.0636	–	–	0.091	–	0.0595	–	–	0.076	–	0.0589	0.0534	–	–
